Experimental data reported in paper PMC8546615, “Polyketide Starter and Extender Units Serve as Regulatory Ligands to Coordinate the Biosynthesis of Antibiotics in Actinomycetes” (mBio, 2021).

T1: AcrTSc (SCO4194) (Streptomyces coelicolor, UniProt Q9FCH5)
T1 construct: His-tagged, E. coli BL21(DE3), Ni-NTA
T1 sequence (Q9FCH5 1-213): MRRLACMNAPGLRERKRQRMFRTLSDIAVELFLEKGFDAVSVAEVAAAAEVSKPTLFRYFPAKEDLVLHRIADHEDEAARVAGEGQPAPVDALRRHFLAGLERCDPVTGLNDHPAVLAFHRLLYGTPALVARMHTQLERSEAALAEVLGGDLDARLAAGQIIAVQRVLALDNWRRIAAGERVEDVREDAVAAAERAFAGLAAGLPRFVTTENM

T2: AcrT (Saccharopolyspora erythraea A226) (UniProt A4FGS6)
T2 sequence: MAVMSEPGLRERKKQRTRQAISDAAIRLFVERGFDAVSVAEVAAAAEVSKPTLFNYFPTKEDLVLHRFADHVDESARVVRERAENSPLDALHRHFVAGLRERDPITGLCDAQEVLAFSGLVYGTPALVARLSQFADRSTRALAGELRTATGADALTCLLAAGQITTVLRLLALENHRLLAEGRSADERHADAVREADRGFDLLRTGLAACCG

T3: AcrTSc (Streptomyces coelicolor M145) (UniProt Q9FCH5)
T3 sequence: T1 sequence (Q9FCH5 1-213)

B1: 50-bp site A probe (dsDNA)
DNA 1: AGGCGATGTCAACCTCTTGATCCTTCCTATATTGTTCGCCCATTGCGTGG
DNA 2: CCACGCAATGGGCGAACAATATAGGAAGGATCAAGAGGTTGACATCGCCT

Target: T1, AcrTSc (SCO4194)
Test: EMSA (enhanced binding to PactI-ORF1 DNA); EGFP reporter in E. coli
Conditions: PactI-ORF1 promoter DNA; EMSA at 30 °C; allosteric

| Molecule | EMSA (enhanced binding to PactI-ORF1 DNA); EGFP reporter in E. coli |
| --- | --- |
| CC(C)(COP(=O)(O)OP(=O)(O)OC[C@H]1O[C@@H](n2cnc3c(N)ncnc32)[C@H](O)[C@@H]1OP(=O)(O)O)[C@@H](O)C(=O)NCCC(=O)NCCSC(=O)CC(=O)O [M-CoA] | A-CoA or M-CoA could promote AcrTSc to interact with PactI-ORF1 |
| CC(=O)SCCNC(=O)CCNC(=O)[C@H](O)C(C)(C)COP(=O)(O)OP(=O)(O)OC[C@H]1O[C@@H](n2cnc3c(N)ncnc32)[C@H](O)[C@@H]1OP(=O)(O)O [A-CoA] | A-CoA or M-CoA could promote AcrTSc to interact with PactI-ORF1 |

Target: T2, AcrT (Saccharopolyspora erythraea A226)
Test: DNase I footprinting
Conditions: BLI: 1 mM Tris-HCl pH 8.0, 5 mM MgCl2, 60 mM KCl, 10 mM DTT, 50 mM EDTA, 10% glycerol, 25 C; EMSA: binding buffer (composition not given), 30 C 20 min, 6% …

| Molecule | binding |
| --- | --- |
| CGGAGCATTTGCTCGCTTTCCAGGTCGGTGCTACGGGCGAAATTCAAAGAATCTCCCCAGCGCGATGTGCGGCAACCCGTCACTGGGCCACCACAGTAGGTAGCCGCCGTTGATCTTGTCAACATGCAGATGTTCACAGGTTCGTTGGCTCGACGAGGCGATGTCAACCTCTTGATCCTTCCTATATTGTTCGCCCATTGCGTGGTCGTCGAGTAGGGGGACGC (double strand) [PeryAI FAM/HEX] | binds |

Target: T4, AcrTSa (SAV4017) (Streptomyces avermitilis, UniProt Q82G81)
T4 construct: gene SAVERM_4017; His-tagged, E. coli BL21(DE3), Ni-NTA
Test: EMSA (release from PaveA1 DNA); EGFP reporter in E. coli
Format: binding
Conditions: PaveA1 promoter DNA; EMSA at 30 °C; allosteric

| Molecule | EMSA (release from PaveA1 DNA); EGFP reporter in E. coli |
| --- | --- |
| CCC(C)C(=O)SCCNC(=O)CCNC(=O)[C@H](O)C(C)(C)COP(=O)(O)OP(=O)(O)OC[C@H]1O[C@@H](n2cnc3c(N)ncnc32)[C@H](O)[C@@H]1OP(=O)(O)O (stereo partly drawn) [MB-CoA] | four acyl-CoA precursors could mediate the dissociation of AcrTSa from the promoter of aveA1 |
| CC(C(=O)O)C(=O)SCCNC(=O)CCNC(=O)[C@H](O)C(C)(C)COP(=O)(O)OP(=O)(O)OC[C@H]1O[C@@H](n2cnc3c(N)ncnc32)[C@H](O)[C@@H]1OP(=O)(O)O (stereo partly drawn) [MM-CoA] | MB-CoA, IB-CoA, M-CoA, and MM-CoA serve as ligands to coordinate avermectin biosynthesis |
| CC(C)(COP(=O)(O)OP(=O)(O)OC[C@H]1O[C@@H](n2cnc3c(N)ncnc32)[C@H](O)[C@@H]1OP(=O)(O)O)[C@@H](O)C(=O)NCCC(=O)NCCSC(=O)CC(=O)O [M-CoA] | MB-CoA, IB-CoA, M-CoA, and MM-CoA serve as ligands to coordinate avermectin biosynthesis |
| CC(C)C(=O)SCCNC(=O)CCNC(=O)[C@H](O)C(C)(C)COP(=O)(O)OP(=O)(O)OC[C@H]1O[C@@H](n2cnc3c(N)ncnc32)[C@H](O)[C@@H]1OP(=O)(O)O [IB-CoA] | MB-CoA, IB-CoA, M-CoA, and MM-CoA serve as ligands to coordinate avermectin biosynthesis |

Target: AcrT (Saccharopolyspora erythraea A226, UniProt A4FGS6 1-212)
Test: BLI; no ligand; BLI: 1 mM Tris-HCl pH 8.0, 5 mM MgCl2, 60 mM KCl, 10 mM DTT, 50 mM EDTA, 10% glycerol, 25 C; EMSA: binding buffer (composition not given), 30 C 20 min, 6% native PAGE in TAE; footprint: binding 30 C 30 min, DNase I 25 C
Conditions: protein: recombinant; tags: N-terminal His (pET28a); chain copies: 2; label: biotin; blunt

| Molecule | Kd |
| --- | --- |
| B1 | 16.4 nM |

Target: T2, AcrT (Saccharopolyspora erythraea A226)
Test: EMSA
Conditions: BLI: 1 mM Tris-HCl pH 8.0, 5 mM MgCl2, 60 mM KCl, 10 mM DTT, 50 mM EDTA, 10% glycerol, 25 C; EMSA: binding buffer (composition not given), 30 C 20 min, 6% …

| Molecule | binding |
| --- | --- |
| GTCCCACCTGCCCAAAAGGCCAAACCCGATTGCTGCGCGAGGGCCCTCCTGCGGTCTAGCGTGACTACCGACAGGACCCCAACGGGGTGGTGCTGCGGCGGTTCGGACACCCCGGCCGGCGCATGTGCGCGATCGACAACGCAGCCCGGACAGCACGGCCGCCCGGGGCGCGGGTCGTCGGCGACGCAAGCCGCCCCTGACGAGCGCGAGAGGTTCCCGA (double strand) [P0649] | no binding |
| CGGTGGAGGCCGTCGTTCCGGTCATGTCATCCCTCTTCTCGTCGGCGGTGCTCTGCCGCACCGGCCGGAGAGAGCATGCCACAAAGGCTAACTCGGTTAAAAACTAGTACTGGATAACTGATTGACCGAGTCTTGCGATGAGCTAGCATGGCGGTCATGAGCGAGCCGGGTC (double strand) [acrT-3981-int] | binds |
| CGGAGCATTTGCTCGCTTTCCAGGTCGGTGCTACGGGCGAAATTCAAAGAATCTCCCCAGCGCGATGTGCGGCAACCCGTCACTGGGCCACCACAGTAGGTAGCCGCCGTTGATCTTGTCAACATGCAGATGTTCACAGGTTCGTTGGCTCGACGAGGCGATGTCAACCTCTTGATCCTTCCTATATTGTTCGCCCATTGCGTGGTCGTCGAGTAGGGGGACGC (double strand) [PeryAI (eryAI-BIV-int)] | binds |
| CGCGTAGGACTCCGAGGCCGGGTCGACGGCCGTGGTGAGGACGGGCGCATCCATGCGTTGTGCACACCTTCCGCGGTCAGCGCGTTAGTCATCGTTAACCAACGGGATCGATGTTAACGACGACTAACCCCTTCGTCTAGTATCGACACGATGGAGGCAAAGCCGTCCCGGCGCGAGCAGATCCTGGAAG (double strand) [P7038-7039] | binds |
| GGAGATCCCGGAGGTGTTGCTGTGATCGGTCGAGCGAGCAGCGCGGGCGTTGCCGCGCCCACCGCCGACCAGCGCGGCCGGTTCGGCCGGACCGCGGCGAATCAGGCGGGGGAGAGGGCATGACGGCGCTGAAGTCGCAAGTGGACACCA (double strand) [P3241-3242] | no binding |
| TCCAGGAAGGGGACGTCCATGCGAGTGTCCGTTCGAGTGGCGGCTTGCGCCCGATGCTAGTCGCGGTTGATCGGCGATCGCAGGTGCACGCGGTCGATCTTGACGGCTGGCGAGAGGTGCGGGGAGGATCTGACCGACGCGGTCCACACGTGGCACCGCGATGCTGTTGTGGGCTGGACAATCGTGCCGGTTGGTAGGATCCAGCGGTGAGCAGTTCGGACGAGCA (double strand) [ermE-eryCI-int] | binds |
| GTCGCCGGTCCGATCACCCATCGACTCTCCCTGCGGTGTCGTCGACGGCTCCGCTTGCTGCCGCCGGGCGTTGTCGATCAAGACCCGCACTCACTGTAAGGGTCCGGTCACGGCGGGGAAAGGGCCCGTGGAGCGGATCACCTGTGCCAGGAACGGAAAACGCGAACGCACGGGTCATCCGCGCACACCGACGA (double strand) [PeryBVI] | binds |
| GACGTCCTCCTCCTGGTGCGGTCGGTTTGGACGTGTCCTCACCTACACCGAGGCGGCGCGGGCGCGCGTGGATACGTCACCGGCGCCGTCGATCCGGATCCGCCTCGGCATGTATCCCGCGGCGGCGCAGCCCGCTCTGTACGGGTGGATCTCGCGGGCGAGCCGACTCCGCGTCGAGCCACGCGCGAGGTCACCGCGCGAGACGGGTCCCGCTCGTCCGCGACGACCTGTGAGGAGGGACGTGGTGAGT (double strand) [P0018-0028] | binds |
| ACGCGCTCACCCCCAGTCATGCAAACAATTTTCAGCTTGATCAACCTAACACCGGCGCGCGGTGCCGACACGGACTTTTCGGACGCCGCTCCTCGGCCGGACATCGCAGCGGAAAGCGCGATCCACAATGGACGCAACGGGAGTCGTAAACCGGCTGATGTGATCCAGGACACAAAGCTCGACGGGTTGGCCGCGGCGCCGCGCTCGTTATGATCTTCCTTGTGGGACT (double strand) [eryBI-BIII-int] | binds |
| GCTGCTTCTTTAGCACACCGCTACCAGCGCCAAATCGATGTGACCAGGCGTTTTACCTCGACATGATTGTTTGTTTACAACCTTTTTTCAGGCGTTTGCGCTCGCAGGCGTTGCTTTGGCGAGCGCGCTGTGATCTTCGTCATCAGTTCGGTGAGGGCACTCGATCCGATTGCGTGAGCGCCACCCCGCGGTGCACTGTTGCACGACGACCACGGCCGCTTCCGCGTTCCGAACCCCCGCCACGTCGAAACCGCGCGCGCCCGCGCGCGGCACCACCGAGCGTGAGAGACGAGGCATC (double strand) [P0632-0633] | binds |
| AGGCCCATCGGTCCGCCCGCTGCTGGCGGGGTGCGCCGCCGGTGCGGCTTCGCCGATCATCCGCAACGAGCCAGGAGAAACCGCAGCGATGAGCAGTGCGACCGAACCTGTCGGGGTGCCGCCGGCGGAGGCACCGGACATCCACACCACCGCGGGCAAGCTGGCCGACCTCTACCGGCGCAACCACGAGGCCGTGCACGCGGGTTCGGA (double strand) [P3398-3399] | no binding |
| GCATCGTGCCCAGCCAGTCGAGGAGTGCGGTTTCGTCGGCCATGCCGGGAACTTCGTCGATGGTGGTCAACGTTCTCCTCGCGCAGCAGGTCGTTTCCACGTCGGCGAACACGCGTCGCGATCTTGAGCTTAGTCGCGCGCCGGACGGGGTGTCGAGACTTCCGCGGTG (double strand) [PeryK] | binds |

Target: T3, AcrTSc (Streptomyces coelicolor M145)
Test: EMSA
Conditions: BLI: 1 mM Tris-HCl pH 8.0, 5 mM MgCl2, 60 mM KCl, 10 mM DTT, 50 mM EDTA, 10% glycerol, 25 C; EMSA: binding buffer (composition not given), 30 C 20 min, 6% …

| Molecule | binding |
| --- | --- |
| CCGCTGGTCGCACCCGTCACCAGTGCGACTTCGGAGTCCTGCGTGGCCATGTGTTCCCCTCCCTGCCTCGTGGTCCCTCACGCGCTCAGCTTTGGGCGCCCGGCTCGAGCGGCGGTCGAAGGGAGATGGGGTGCCGCTGGACGCGGCGCCGGTGGATCCGGCATCGAGGGGTCCCGTATC (double strand) [PactI-ORF1] | binds |
